# From the supplement of paper PMC10338343
# ± gives the standard deviation. Over roughly 5,500 sequences, “pre-steady-state target cleavage rate” has its median near 0.1; the highest 2% begin near 0.64. The entries are a selection whose mix differs from that of the whole data set.
# System: MIWI (PIWIL1) piRISC loaded with piRNA #2 (30 nt)
# Experiment: pre-steady-state target cleavage rate (min^-1); MIWI and MILI are mouse PIWI proteins and EfPiwi is from a freshwater sponge; tags in brackets are library labels; higher = faster piRNA-guided slicing of the target
# Details: guide: piRNA #2 5'p-UUAGGUAACCCAGUAGAUCCAGAGGAAUUC; auxiliary factor: 500 nM mouse GTSF1
# Outline: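 Three pooled Cleave-'n-Seq trials supplied the data, with k3 capped at 0.0001 min^-1. In each, […] transcribed, DNA-blocked target RNA library and 1 nM active affinity-purified piRISC with one synthetic guide reacted in HEPES–potassium acetate buffer at 33 °C for 0–8 or 0–960 min, with or without 500 nM GTSF1 partner protein. Uncleaved targets were sequenced and normalised to depth and to weakly complementary targets. A burst-and-steady-state fit provided the pre-steady-state cleavage rate.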
row,Sequence,pre-steady-state target cleavage rate
1,CUUAAGGUCUGGAUCAACUCGGUUACCUAA,0.0177 ± 0.015
2,CUUAAGGAGUGGAUCUACUGGGUCUACCUAA,0.0444 ± 0.014
3,GAAUUCCUCUGGAUGUACUGGGUUUCCUAA,0.346 ± 0.067
4,CUAUUCCACUGCAUCUACUGGGUUACCUAA,0.419 ± 0.024
5,CUUAACCUCUGGAUCUACUGGGUUAGCUAA,0.201 ± 0.021
6,CUUAUCCUCUGGAUCUACAGGGUUACCUUA,0.224 ± 0.029
7,CUUUUCCUCUGGAUCUAUGGGUUACCUAA,0.0116 ± 0.0027
8,CUAUUCCUCUGGAUCAACUGGGUUAGCUAA,0.161 ± 0.037
9,CUUUUCCUCUGGAUGUACUGGGUUACGUAA,0.54 ± 0.041
10,CUUAAGGUCUGCGAUCUACUGGGUUACCUAA,0.272 ± 0.051
11,CUUAAGGUCUGGAACAACUGGGUUACCUAA,0.0581 ± 0.023
12,CUUAAGGAGAGGAUCUACUGCGUUACCUAA,0.0103 ± 0.0036
13,GAAUUCCUGUGGAACUACUGGGUUACCUAA,0.256 ± 0.052
14,CUUAAGGUCUGGAUUUACUGGGUUACCUAA,0.259 ± 0.032
15,GAAUUCCUGACGAUCUACUGGGUUACCUAA,0.234 ± 0.031
16,CUUAAGGACUGGAUCUACUGGGUAACCUAA,0.0365 ± 0.034
17,CUUAACGUCUGGAUCUACUGGGUAACCUAA,0.0915 ± 0.018
18,CUUUUCCACUCGAUCUACUGGGUUACCUAA,0.547 ± 0.033
19,CAAUUCCUCUGGAUCAUCUGGGUUACCUAA,0.332 ± 0.05
20,CUUUUCCACUGGAUCUACUGGGUUACCUAA,0.562 ± 0.05
21,CUUAAGCUCUGCAUCUACUCGGUUACCUAA,0.0373 ± 0.012
22,CUAUUCCUCUGGAUCUUCUGGGUUUCCUAA,0.19 ± 0.042
23,CUUAUCCACUGGAUCUACAGGGUUACCUAA,0.244 ± 0.021

row,Sequence,pre-steady-state target cleavage rate
1,CAACUUCCUCUGGAUCUACUGGGUUACCUAA,0.28 ± 0.046
2,CUUAUCACUCUGGAUCUACUGGGUUACCUAA,0.203 ± 0.027
3,CUUAAGGAGUGGAUCUAGUGGGUUACCUUA,0.00368 ± 0.0032
4,CAAUUGCUCUGGAUCUACUGGGUUACCUAA,0.229 ± 0.045
5,CUUAAGGUCUCGAUCAACUGGGUUACCUAA,0.083 ± 0.014
6,CUUAUCCUCUGGAUCUACUGGGUUACCUUAA,0.29 ± 0.042
7,CUUAAGGAGACCUAGAUGUGGCUUACCUAA,< 0.0001
8,CUUAAGGACUGGUUCUACAGGGUUACCUAA,0.0293 ± 0.013
9,CUAUUCCUCUGGAACUACUGGCUUACCUAA,0.137 ± 0.018
10,CUUUUGCUCUGGAUCUUCUGGGUUACCUAA,0.13 ± 0.016
11,CAAUUCCACUCGAUCUACUGGGUUACCUAA,0.798 ± 0.047
12,CUUAACCUCUGGAUCUACUGGGUUUCCAAA,0.0522 ± 0.015
13,CUAUUCUCUGGAUCUACUGGGUUACCUAA,0.308 ± 0.049
14,CUAUUCCUCUGGAUCUACACGGUUACCUAA,0.174 ± 0.02
15,CUAUUCCUCUGGAUCUCCUGGGUUACCUAA,0.233 ± 0.049
16,CUAUCUCCUCUGGAUCUACUGGGUUACCUAA,0.355 ± 0.058
17,CAAUUCCUCUGGAUGUACUGGGUUACCUAA,0.578 ± 0.054
18,GAAUUCCUCUGGAUGUACUCGGUUACCUAA,0.0939 ± 0.026
19,CUAUUCCUCUGGAUCUACUGGGUUACCCAA,0.337 ± 0.11
20,CUUUUCCUCUGGAUCUACUGGGUUCCCUAA,0.25 ± 0.043
21,CUUAACCUCUGGAUGUACUGGGUUACGUAA,0.373 ± 0.038
22,CUAUUCCUCUGGUUCUACUGGGUUACCAAA,0.339 ± 0.064
23,CUUAACCUCUGGCUCUACUGGGUUACCUAA,0.56 ± 0.042

row,Sequence,pre-steady-state target cleavage rate
1,CUUAUUCUCUGGAUCUACUGGGUUACCUAA,0.185 ± 0.03
2,CUAUUCCUCUGGAUCUUCUGGGUAACCUAA,0.0712 ± 0.015
3,CUUUUCCUCUGGAUCUACAGGGUAACCUAA,0.118 ± 0.019
4,CUUAAGGACUGGUAUCUACUGGGUUACCUAA,0.0272 ± 0.023
5,CUUAAGGUCUGGAUCUACUGGGAUUCCUAA,0.00713 ± 0.0031
6,CUUAAGCUCUGGAUCUUCUGGGUUAGCUAA,0.0528 ± 0.0097
7,GAAUUCCUCAGGAUCUACUGGGUAACCUAA,0.341 ± 0.037
8,CUUAACCUCUGGAUCUACUGGCUUACGUAA,0.0611 ± 0.0099
9,CUAUUCCUCUGGAUCAACUGCGUUACCUAA,0.492 ± 0.064
10,CUUAAGCUCUGGAUCACUGGGUUACCUAA,0.0108 ± 0.0037
11,CUUAAGGAGACGAUCUACUGGGUUACAUAA,0.0124 ± 0.0049
12,GAAUUCCUCGGAUCUACUGGGUUACCUAA,0.432 ± 0.08
13,CUUAAGCUCUGGAUCUACUGCGUUUCCUAA,0.0239 ± 0.011
14,CUAUUCCUCUGGAUCAACUGGGUAACCUAA,0.164 ± 0.028
15,GAAAUCCUCUGGAUCUACUGGGUUACCAAA,0.322 ± 0.067
16,GAAUUCCUCUGGUUCUACUGCGUUACCUAA,0.46 ± 0.045
17,CUUUUCCUCUGGAUGUACUGGGAUACCUAA,0.152 ± 0.02
18,CUUAUCCUGUGGAUCUACUGGGUUAGCUAA,0.0726 ± 0.018
19,CUUAAGGACUGGAUCUUCUGGGUUACCUUA,0.0155 ± 0.014
20,CUUAUCCUCUGGAUGUACUGGGUUACGUAA,0.519 ± 0.051
21,GAAUUCCUCUGGAUCUACAGGGUUACCUUA,0.17 ± 0.021
22,CUAUUCCUCUGGAUCUACUGGGCUUACCUAA,0.0845 ± 0.021
23,CAAUUCCUCUGGAUCUUCUGGGUUACCUUA,0.331 ± 0.056

row,Sequence,pre-steady-state target cleavage rate
1,CUUAAGCUCGGAUCUACUGGGUUACCUAA,0.189 ± 0.062
2,GAGAUUCCUCUGGAUCUACUGGGUUACCUAA,0.149 ± 0.034
3,CUUAAGCUCUGGAUCUACUGCGUAACCUAA,0.0706 ± 0.022
4,CAAUUCCUCUGGAUCUACACGGUUACCUAA,0.262 ± 0.035
5,CUUAAGGUCUGGAUUCUACUGGGUUACCUAA,0.126 ± 0.014
6,CUUAAGCUCUGGAUGUUCUGGGUUACCUAA,0.0899 ± 0.012
7,CUUAAGGUCUGGAACUACUGCGUUACCUAA,0.11 ± 0.056
8,CAUUUCCUCUGGAUCUAGUGGGUUACCUAA,0.219 ± 0.025
9,CUUUUCCUCUGGAUCUACUGGGUUACCUUAA,0.343 ± 0.052
10,GAAUUCCUCUGGAUCUACUGGCUUUCCUAA,0.0581 ± 0.019
11,CUUAACCUGUGGAUCUUCUGGGUUACCUAA,0.218 ± 0.037
12,CUUUUCCUCUGGAUCUACUGGGUUAACCUAA,0.429 ± 0.044
13,CUUAUACCUCUGGAUCUACUGGGUUACCUAA,0.389 ± 0.061
14,CUUAACCUCUGGAUCUAGUGGGAUACCUAA,0.0442 ± 0.0073
15,CUUAACCACUGGAUCUACUGGGUUACCAAA,0.289 ± 0.044
16,CUUAUCCUCAGGAUCUACUGGGUAACCUAA,0.201 ± 0.04
17,CAAUUCCUCAGGUUCUACUGGGUUACCUAA,0.709 ± 0.054
18,CUUAUCCUCUGGAUCUACUGGGUUACGCUAA,0.538 ± 0.04
19,CAAUUCCACUGGAUCUACUGGGUUACGUAA,0.419 ± 0.081
20,CUUAAGCUCUGCAUCAACUGGGUUACCUAA,0.136 ± 0.023
21,CUAUUCCUGUGCAUCUACUGGGUUACCUAA,0.343 ± 0.028
22,CUUAACCUCUGGAACUACUGGCUUACCUAA,0.078 ± 0.011
23,CUUAACCUCUGGAUCUACUGGCUUAGCUAA,0.0132 ± 0.0047
